According to PubChem BioAssay AID1345083 (National Center for Advancing Translational Sciences (NCATS), 2018):
Several values for one entry are separate records, joined by “and”; a condition that tells them apart may be missing. Identical values can stand only once. The campaign covered roughly 94,000 compounds. About 6,200 (6.6%) were called active. The inconclusive results got no clear call from the source; some entries with a clear call stand among them for comparison. Calls come from the whole dose curve; as a rule, active = well fitted inhibition curve with a large enough effect; inconclusive = small, poorly fitted or top-dose-only effect; inactive = flat fitted curve, though single readings scatter. Potencies beside an inconclusive call are fits to weak or partial responses and may not hold up.

test: Cytotoxic Profiling in HEK 293 Cell Line of Diverse Libraries Using Quantitative High-Throughput Screening; details: HEK 293 viability, ATP luminescence (CellTiter-Glo), 48-72 h; series mostly up to 115 µM; note: nearly all actives have a fitted effect of over 60% in size
Method in brief: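 ATP-coupled CellTiter-Glo luminescence served as viability read-out, recorded 10 min after reagent addition at room temperature. HEK 293 cells, 250 cells/well, had been incubated with pintool-transferred compound for 48 or 72 hr at 37 degree Celsius.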
Potency is the fitted concentration of half-maximal effect; tags give direction and shape of the fitted curve.

Row | SMILES | Potency
1 | C#CCNC(=O)C1CN(c2ccc(OC)cc2)C(=O)N1 (stereo unspecified) | inactive
2 | O=C(c1[nH]nc2c1CCc1ccccc1-2)N1CCC(c2noc(-c3ccccn3)n2)C1 (stereo unspecified) | inconclusive: 44.7 µM [inhibitor, partial curve, poor fit]
3 | COC(=O)CNC(=O)c1nc2sccn2c1Br | inactive
4 | CNC(=O)[C@@H]1C[C@H](Oc2cccnc2)CN1C(=O)c1nccc2ccccc12 | inactive
5 | COc1ncccc1-c1nc(-c2c(C)noc2C)cc2[nH]c(C)cc12 | inconclusive: 28.2 µM [inhibitor, partial curve, poor fit]
6 | Cc1cccc(N2CCN(C(=O)c3noc(-c4ccc[nH]c4=O)n3)CC2)c1C | inconclusive: 63.1 µM [inhibitor, partial curve, poor fit]
7 | C#CCNC(=O)C1CN(c2cccc(Cl)c2)C(=O)N1 (stereo unspecified) | inconclusive: 89.1 µM [inhibitor, partial curve, poor fit] and inconclusive: 35.5 µM [inhibitor, full curve]
8 | Cc1cc(C)cc(-c2ccc(CN3CCCC(NC(=O)Nc4ccccc4)C3)cc2)c1 (stereo unspecified) | inconclusive: 6.31 µM [inhibitor, full curve, poor fit]
9 | COc1ccc(CN2CCOCCNC(=O)CC2)cc1Cc1c(C)noc1C | inactive
10 | O=C(N[C@H]1CCN2C(=O)c3cc(-c4ccsc4)ccc3NC(=O)[C@H]12)c1cccs1 | inconclusive: 112 µM [inhibitor, single point]
11 | COc1ccc(NC(=O)Cn2c(=O)n(-c3ccccc3)c(=O)c3c2cc(C)n3C)cc1OC | inconclusive: 50.1 µM [inhibitor, partial curve, poor fit]
12 | O=C(c1ccccn1)N1CCC2(CC1)CN[S+](=O)([O-])c1ccccc1N2 | inactive
13 | C[C@@]1(O)CCN(C(=O)C2(c3ccccc3)CC2)C[C@@H]1Cc1ccccc1 | inconclusive: 70.8 µM [inhibitor, partial curve]
14 | c1cc2nc(C3CCCCC3)[nH]c2cn1 | inconclusive: 158 µM [inhibitor, single point]
15 | CNC(=O)Nc1ccc(C)n(CC(=O)NCc2cccc(Cl)c2)c1=O | inactive
16 | CCOC(=O)[C@@H]1CN([S+](=O)([O-])c2ccc(C(C)=O)cc2)[C@H]2c3ccc(OC)cc3O[C@@H]12 | inconclusive: 44.7 µM [inhibitor, partial curve, poor fit]
17 | NC(=O)NCC(=O)N1CCCC(c2cc(N3CCOCC3)ncn2)C1 (stereo unspecified) | inactive
18 | COc1ccc(C(=O)N2CCc3ccc(C(=O)NCC(C)C)cc32)cc1 | inconclusive: 79.4 µM [inhibitor, partial curve]
19 | COc1cc(-c2ccc(C)s2)cc2c1OCCN(Cc1nc[nH]c1C)C2 | inconclusive: 56.2 µM [inhibitor, partial curve, poor fit]
20 | COc1ccc(-n2cc(CN3CCCN(C)CC3)c(-c3cccc(F)c3)n2)cc1 | inconclusive: 50.1 µM [inhibitor, partial curve, poor fit]
21 | CCc1ccc(CN(C)C(=O)c2ccc3oc(-c4cccc(F)c4)nc3c2)nc1 | inconclusive: 89.1 µM [inhibitor, single point]
22 | Cc1ccc(CN2CCC3(CC2)CCN(Cc2cccnc2)CC3CO)s1 (stereo unspecified) | inconclusive: 100 µM [inhibitor, single point]

Row | SMILES | Potency
23 | CC1=C(C(=O)OC(C)C)C(c2cccc(F)c2)N2C(CC(=O)NCc3ccco3)=CSC2=N1 (stereo unspecified) | inconclusive: 50.1 µM [inhibitor, partial curve, poor fit]
24 | CCn1nccc1C(=O)N1CC(c2nc(CCOc3cccc(C)c3)no2)C1 | inconclusive: 50.1 µM [inhibitor, partial curve, poor fit]
25 | COCCC(=O)NC[C@@H]1C=C(C)[C@H](CC(=O)N(C)Cc2ccccc2)C[C@H]1C(C)C | inconclusive: 100 µM [inhibitor, partial curve]
26 | COc1ccc(-n2nc3n(c2=O)CCN(Cc2cccnc2)C3)cc1 | inactive
27 | O=C(NCc1cccs1)c1nc(-c2cccnc2)c2cnccn12 | inconclusive: 79.4 µM [inhibitor, single point]
28 | Cc1nnnn1CCC(=O)Nc1nn(C)c2cccc(N3CCOCC3)c12 | inconclusive: 100 µM [inhibitor, single point]
29 | CC(C)(C)NC(=O)N1C[C@@H](Oc2ccccc2)C[C@H]1C(=O)N1CCOCC1 | inactive
30 | c1ccc2cc(-c3nc(C4CCOC4)no3)ncc2c1 (stereo unspecified) | inactive
31 | O=C(c1cccc2[nH]ccc12)N1CCCN(c2cc(-c3ccc(Cl)cc3)[nH]n2)CC1 | inconclusive: 39.8 µM [inhibitor, partial curve, poor fit]
32 | Cc1noc2c(-c3cccnc3NC3CCN(C)CC3)cc(-c3ccccc3)nc12 | active: 63.1 µM
33 | Cn1nc(C2CC2)cc1N[S+](=O)([O-])c1ccccc1 | inactive
34 | COC[C@@H]1CN(Cc2ccc(OC)c(C)c2)C[C@H]1C(=O)N(C)C | inactive
35 | Cn1nc(-c2ccncc2)cc1NC(=O)c1ccccc1Cl | inconclusive: 28.2 µM [inhibitor, full curve]
36 | CC(C)CNC(=O)c1ccc2nnc(C3CCCC3)n2c1 | inactive
37 | COc1ccc(C(C)NC(=O)CN2C(=O)C(c3ccccc3)=NC2(C)C)cc1 (stereo unspecified) | inconclusive: 89.1 µM [inhibitor, single point]
38 | Cc1ccc(C(=O)N2CCC(N3C[C@H](O)C[C@H]3C(=O)NC3CCCCC3)CC2)cn1 | inactive
39 | O=C(Nc1ccc([C@@H](O)[C@H]2COCC(=O)N2Cc2ccccc2F)cc1)c1ccc2c(c1)OCO2 | inconclusive: 50.1 µM [inhibitor, partial curve, poor fit]
40 | O=C1CCN(CC(O)COc2ccccc2)c2ccc(F)cc2CN1CC1CC1 (stereo unspecified) | inconclusive: 89.1 µM [inhibitor, single point]
41 | COC[C@@H]1CN(Cc2cccc(OC)n2)C[C@H]1C(=O)N(C)C | inactive
42 | Fc1ccccc1Nc1ccnc(N2CC3CCC(C2)N3CC(F)(F)F)n1 | inconclusive: 50.1 µM [inhibitor, partial curve, poor fit]
43 | Cc1cc(C(F)(F)F)n(CC(C)Cn2cc(-c3cncnc3)nn2)n1 (stereo unspecified) | inactive
44 | COc1ccc(-c2ccc(NC(=O)c3ccccc3Cl)cc2)nn1 | inconclusive: 89.1 µM [inhibitor, single point]

Row | SMILES | Potency
45 | O=C(NCC1CC1)C1CCN(c2nccc(Nc3ccccc3F)n2)CC1 | inconclusive: 89.1 µM [inhibitor, single point]
46 | O=C(c1ccc(Oc2ccccc2)cc1)N1CCc2c(n(Cc3cccnc3)n(-c3ccccc3)c2=O)C1 | inactive
47 | CC(=O)Nc1ccc(-c2nnc3n2CCN(C(=O)c2cccc(Cl)c2)C3)cc1 | inactive
48 | COCCN1CCCCCC(O)c2cc(C(=O)Nc3cc(C)ccc3OC)ccc21 (stereo unspecified) | active: 44.7 µM
49 | O=C(CN1CCn2nnc(-c3nc(-c4ccccc4)no3)c2C1=O)Nc1ccc(Cl)cc1 | inconclusive: 25.1 µM [inhibitor, full curve, poor fit]
50 | COC(=O)[C@@H]1Cc2ncn(Cc3ccc(OC)cc3)c2CN1Cc1ccc(F)cc1 | active: 63.1 µM
51 | CC(=O)c1ccc(-c2nc(C3CCOC3)no2)s1 (stereo unspecified) | inactive
52 | CN(C)c1cccc(NC(=O)Cc2c[nH]c3ncc(-c4cccnc4)cc23)c1 | inconclusive: 100 µM [inhibitor, partial curve]
53 | Cn1ncc2c(C(=O)NC3CC3)cc(-c3ccccc3F)nc21 | inconclusive: 44.7 µM [inhibitor, full curve, poor fit]
54 | COc1ccc(C(=O)N2CCC(C(=O)N3CCC(N4CCOC4=O)CC3)CC2)cc1 | inactive
55 | O=C(NCc1ccc(F)cc1)N1CCC(Oc2ncccc2C(=O)N2CCCCC2)C1 (stereo unspecified) | inactive
56 | COc1ccc(OC)c(NC(=O)N2CCCN(C)c3ccccc32)c1 | inconclusive: 50.1 µM [inhibitor, partial curve, poor fit]
57 | Cc1nn(-c2ccc(F)cc2)c(Oc2ccccc2)c1CCC(=O)N1CCOCC1 | inconclusive: 56.2 µM [inhibitor, partial curve, poor fit]
58 | O=C1CC(c2ccccc2)N(C(=O)C2CC2)CCCN(C(=O)C2CCCCC2)CCN1 (stereo unspecified) | inactive
59 | O=C(c1cc(-c2cccc(C(F)(F)F)c2)c2nncn2n1)N1CCC(N2CCCCC2)CC1 | inconclusive: 22.4 µM [inhibitor, full curve, poor fit]
60 | CN1CCCCCCN(C(=O)CC2CCCCC2)[C@H]2CCC[C@H]2C1=O | inconclusive: 56.2 µM [inhibitor, partial curve, poor fit]
61 | Cc1ccc2nc(CO[C@H]3CN(C(=O)C4CCOCC4)C[C@H]3F)[nH]c2c1 | inactive
62 | COc1ccc2c(c1)OCC(C(=O)NCc1cc3cc(OC)ccc3[nH]1)C2 (stereo unspecified) | inconclusive: 89.1 µM [inhibitor, partial curve, poor fit]
63 | CN(Cc1ccccc1)C(=O)C[C@@H]1CCNC[C@@H]1Cc1cc(CN(C)c2ccccc2)on1 | inconclusive: 50.1 µM [inhibitor, partial curve, poor fit]
64 | O=C1N(c2ccccc2)CC12CCN(S(=O)(=O)Cc1ccccc1)CC2 | inconclusive: 79.4 µM [inhibitor, partial curve, poor fit]
65 | c1ccc(OCc2cc(CC3(NCc4ccco4)COC3)no2)cc1 | inconclusive: 126 µM [inhibitor, single point]
66 | COc1ccc(-c2ccc3ncc(Nc4ccccc4C)n3n2)cn1 | inconclusive: 70.8 µM [inhibitor, partial curve, poor fit]
